According to patent US5391540A, “Substituted pyridine compounds” (Rohm and Haas Company, priority 1993, dated 1995):
At least one read-out could not be matched to a standard name with certainty. Some compounds share one range, which may span the group rather than tell each member.

Tests used:
Experiment in all cases: Post-emergence herbicidal activity (Table C)
Format in all cases: in vivo
[1] = system: Velvetleaf; details: Vele, 11.2 kg/ha, 10-14 days
[2] = system: Morningglory; details: Mogl, 11.2 kg/ha, 10-14 days
[3] = system: Yellow Nutsedge; details: Yens, 11.2 kg/ha, 10-14 days
[4] = system: Downy Brome; details: Dobr, 11.2 kg/ha, 10-14 days
[5] = system: Cocklebur; details: Cobu, 11.2 kg/ha, 10-14 days
[6] = system: Wild Buckwheat; details: Wibw, 11.2 kg/ha, 10-14 days
[7] = system: Seedling Johnsongrass; details: Sejg, 11.2 kg/ha, 10-14 days
[8] = system: Barnyardgrass; details: Bygr, 11.2 kg/ha, 10-14 days
[9] = system: Indian Mustard; details: Inmu, 11.2 kg/ha, 10-14 days
[10] = system: Annual Bluegrass; details: Anbg, 11.2 kg/ha, 10-14 days

## COC(=O)c1c(OC)nc(C(F)(F)F)c(C=O)c1CC1CC1 [Compound 115, 3-pyridinecarboxylic acid, 4-(cyclopropylmethyl)-5-formy1-2-methoxy-6-(trifluoromethyl)-, methyl ester]
[1]
  post-emergent herbicidal activity index: 1 (25-49% inhibition)
[2]
  post-emergent herbicidal activity index: 1 (25-49% inhibition)
[3]
  post-emergent herbicidal activity index: 0 (0-24% inhibition)
[4]
  post-emergent herbicidal activity index: 0 (0-24% inhibition)
[5]
  post-emergent herbicidal activity index: 1 (25-49% inhibition)
[6]
  post-emergent herbicidal activity index: 0 (0-24% inhibition)
[7]
  post-emergent herbicidal activity index: 0 (0-24% inhibition)
[8]
  post-emergent herbicidal activity index: 0 (0-24% inhibition)
[9]
  post-emergent herbicidal activity index: 1 (25-49% inhibition)
[10]
  post-emergent herbicidal activity index: 0 (0-24% inhibition)

## COC(=O)c1c(OC)nc(C(F)(F)F)c(C(=O)OCC(F)(F)F)c1CC(C)C [Compound 112, 3,5-pyridinedicarboxylic acid, 2-methoxy-4-(2-methylpropyl)-6-(trifluoromethyl)-, 3-methyl 5-(2,2,2-trifluoroethyl) ester]
[1]
  post-emergent herbicidal activity index: 1 (25-49% inhibition)
[2]
  post-emergent herbicidal activity index: 0 (0-24% inhibition)
[3]
  post-emergent herbicidal activity index: 0 (0-24% inhibition)
[4]
  post-emergent herbicidal activity index: 0 (0-24% inhibition)
[5]
  post-emergent herbicidal activity index: 0 (0-24% inhibition)
[6]
  post-emergent herbicidal activity index: 2 (50-74% inhibition)
[7]
  post-emergent herbicidal activity index: 1 (25-49% inhibition)
[8]
  post-emergent herbicidal activity index: 0 (0-24% inhibition)
[9]
  post-emergent herbicidal activity index: 2 (50-74% inhibition)
[10]
  post-emergent herbicidal activity index: 0 (0-24% inhibition)

## COC(=O)c1c(OC)nc(C(F)(F)F)c(C2OCCS2(=O)=O)c1CC(C)C (stereo not shown) [Compound 127, 3-pyridinecarboxylic acid, 2-methoxy-4-(2-methylpropyl)-5-(3,3-dioxo-1,3-oxathiolan-2-yl)-6-(trifluoromethyl)-, methyl ester]
[1]
  post-emergent herbicidal activity index: 0 (0-24% inhibition)
[2]
  post-emergent herbicidal activity index: 0 (0-24% inhibition)
[3]
  post-emergent herbicidal activity index: 0 (0-24% inhibition)
[4]
  post-emergent herbicidal activity index: 0 (0-24% inhibition)
[5]
  post-emergent herbicidal activity index: 0 (0-24% inhibition)
[6]
  post-emergent herbicidal activity index: 0 (0-24% inhibition)
[7]
  post-emergent herbicidal activity index: 0 (0-24% inhibition)
[8]
  post-emergent herbicidal activity index: 0 (0-24% inhibition)
[9]
  post-emergent herbicidal activity index: 0 (0-24% inhibition)
[10]
  post-emergent herbicidal activity index: 0 (0-24% inhibition)

## COC(=O)c1c(OC)nc(C(F)(F)F)c(-c2nnc(C)o2)c1CC(C)C [Compound 103, 3-pyridinecarboxylic acid, 2-methoxy-5-(5-methy1-1,3,4-oxadiazo1-2-yl)-4-(2-methylpropyl)-6-(trifluoromethyl)-, methyl ester]
[1]
  post-emergent herbicidal activity index: 2 (50-74% inhibition)
[2]
  post-emergent herbicidal activity index: 2 (50-74% inhibition)
[3]
  post-emergent herbicidal activity index: 0 (0-24% inhibition)
[4]
  post-emergent herbicidal activity index: 0 (0-24% inhibition)
[5]
  post-emergent herbicidal activity index: 2 (50-74% inhibition)
[6]
  post-emergent herbicidal activity index: 2 (50-74% inhibition)
[7]
  post-emergent herbicidal activity index: 2 (50-74% inhibition)
[8]
  post-emergent herbicidal activity index: 2 (50-74% inhibition)
[9]
  post-emergent herbicidal activity index: 2 (50-74% inhibition)
[10]
  post-emergent herbicidal activity index: 0 (0-24% inhibition)
